# Measured values taken from PubChem BioAssay AID1631 (National Center for Advancing Translational Sciences (NCATS), 2009).
# The whole screen tested about 260,000 compounds, of which about 890 (0.34%) were called active. This list was built around the results that the source calls inconclusive (neither active nor inactive); the mix of calls is not that of the screen. Calls come from the whole dose curve; as a rule, active = well fitted activation curve with a large enough effect; inconclusive = small, poorly fitted or top-dose-only effect; inactive = no such curve, though single readings can be large or run the other way. Potencies of inconclusive entries are left out as doubtful fits.
# Biological target: Pyruvate kinase PKM (Homo sapiens) (UniProt P14618)
# UniProt P14618, sequence (P14618 whole entry, looked up, canonical isoform): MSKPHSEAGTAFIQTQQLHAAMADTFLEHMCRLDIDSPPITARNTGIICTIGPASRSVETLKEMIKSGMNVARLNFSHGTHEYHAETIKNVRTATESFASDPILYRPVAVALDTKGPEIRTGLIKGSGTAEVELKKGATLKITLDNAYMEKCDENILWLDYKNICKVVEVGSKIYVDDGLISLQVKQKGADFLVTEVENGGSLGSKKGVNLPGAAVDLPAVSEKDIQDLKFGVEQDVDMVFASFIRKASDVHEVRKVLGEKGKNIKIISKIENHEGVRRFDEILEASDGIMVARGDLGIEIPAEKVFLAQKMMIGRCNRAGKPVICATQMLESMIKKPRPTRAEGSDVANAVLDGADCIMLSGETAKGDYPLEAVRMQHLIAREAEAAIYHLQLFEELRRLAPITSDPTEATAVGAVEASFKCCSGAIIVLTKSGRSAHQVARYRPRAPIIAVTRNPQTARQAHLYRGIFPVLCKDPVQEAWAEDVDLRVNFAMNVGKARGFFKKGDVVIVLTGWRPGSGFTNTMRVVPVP
# Test: qHTS Assay for Activators of Human Muscle isoform 2 Pyruvate Kinase; note: nearly all actives have a fitted effect of over 55% in size
# Conditions: purified PKM2, Kinase-Glo ATP luminescence; Potency: activation; activation: at 57.5 µM (top of the series), 0% is enzyme alone, no compound
# Summary of the method: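 Purified hPK-M2 (>95% pure) converted ADP (0.1 mM final) to ATP with 0.5 mM PEP in 50 mM imidazole pH7.2, KCl, MgCl2, Tween 20, BSA; 1 h at room temperature. ATP detected by Kinase-Glo luminescence.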
# % is set by controls: 0 for no effect and ±100 for the full control effect; potency is the fitted concentration of half-maximal effect; tags give direction and shape of the fitted curve.
SMILES,Potency,activation
C/C(=N/NS(=O)(=O)c1ccc(C)cc1)c1c(O)c2ccccc2oc1=O,inactive,–
CCOC(=O)C1=C(OCc2ccc(Cl)cc2)C2C=C(C)C=CC2N=C1 (stereo unspecified),inactive,–
Cc1ccc2c(Cl)c(C(=O)NCCCn3ccnc3)sc2c1,"inconclusive [rising, single point]",–
CCOC(=O)c1c(-c2ccc(C)o2)csc1NC(=O)CN1CCC(C(N)=O)CC1,active: 20 µM,–
Cc1cc2nnc(SCC(=O)Nc3ccc(Cl)cc3)n2c(N)n1,"inconclusive [rising, partial curve]",–
CCN(CC)S(=O)(=O)c1cccc(NC(=O)c2ccc(Sc3nncn3C)c([N+](=O)[O-])c2)c1,"inconclusive [rising, single point]",–
O=C(CSc1ccc(-c2cccs2)nn1)Nc1ccccc1,"inconclusive [rising, partial curve]",–
Cc1cccc(CSc2nnc(-c3ccco3)n2C)c1,"inconclusive [rising, partial curve]",–
O=C(CCN1C(=O)c2ccc([N+](=O)[O-])cc2C1=O)Nc1cccc(O)c1,"inconclusive [rising, full curve, poor fit]",–
Cc1cccc(-n2c(Cc3ccccc3)nnc2SCC(=O)N2CCOCC2)c1,"inconclusive [rising, partial curve]",–
COc1ccc2c(c1)NC(c1ccc(N(C)C)cc1)c1cccn1-2 (stereo unspecified),"inconclusive [rising, full curve]",–
Oc1ccc(/C=N/NC(=S)NC2CC3CCC2C3)cc1 (stereo unspecified),"inconclusive [rising, single point]",–
O=C(NC(Nc1ncc(S(=O)(=O)c2ccc([N+](=O)[O-])cc2)s1)(C(F)(F)F)C(F)(F)F)c1ccc(Cl)cc1,"inconclusive [rising, partial curve]",–
Cc1ccc(NC(=O)CSC2=C(C#N)C(c3ccco3)C3=C(CCCC3=O)N2)cc1 (stereo unspecified),active: 4.47 µM,–
CCn1c(O)c(/C=N/N=C2CCCCC2)c2cc(C3=NNC(=O)CC3)ccc21,"inconclusive [rising, partial curve]",–
Cc1c(C(=O)NCCN2C(=O)S/C(=C\c3cccnc3)C2=O)cccc1[N+](=O)[O-],"inconclusive [rising, single point]",–
O=S(=O)(Nc1ccc(S(=O)(=O)N2CCCCC2)cc1)c1cccs1,"inconclusive [rising, partial curve]",–
CCCCOc1ccc(C(=O)NC)cc1,inactive,–
COCCCNC(=S)N/N=C/c1ccc(O)cc1,"inconclusive [rising, single point]",–
O=[N+]([O-])c1cccc(/C=N/NC2=NS(=O)(=O)c3ccccc32)c1,"inconclusive [rising, single point]",–
CC(=O)N1CCc2cc(S(=O)(=O)Nc3cccc(C(F)(F)F)c3)ccc21,active: 25.1 µM,–
COc1ccc(S(=O)(=O)N2CCC(NC(=O)OCc3c(Cl)cccc3Cl)CC2)cc1,"inconclusive [rising, partial curve]",–
CN1C(=O)C(CC(=O)Nc2ccc(F)cc2)N(Cc2cccs2)C1=S (stereo unspecified),"inconclusive [rising, single point]",–
O=C(N/N=C/c1ccc(O)c(O)c1O)/C(=C/c1ccc([N+](=O)[O-])cc1)NC(=O)c1ccccc1,inactive,–

SMILES,Potency,activation
CCn1cc(C2=NOC(C(=O)Nc3cccc(C(C)=O)c3)C2)c(C)n1 (stereo unspecified),"inconclusive [rising, full curve]",–
O=C(Nc1cccc(O)c1)c1cccc(S(=O)(=O)Nc2cccc(O)c2)c1,"inconclusive [rising, partial curve]",–
COc1ccc(NC(=O)N(Cc2cc3cc(C)ccc3[nH]c2=O)CC2CCCO2)cc1 (stereo unspecified),inactive,–
C/C=C/COC(=O)c1[nH]c2c(c1C)C(=O)CC(c1ccco1)C2 (stereo unspecified),"inconclusive [rising, partial curve]",–
COc1cccc(CNC(=O)C2CCN(S(=O)(=O)c3ccc(Br)s3)CC2)c1,"inconclusive [rising, partial curve]",–
Cn1c(=O)oc2cc(S(=O)(=O)N3CCC(N4CCCCC4)CC3)ccc21,"inconclusive [rising, single point]",–
Cc1cccc(NNC(=O)C(=O)NNc2cccc(C)c2)c1,inactive,–
O=S(=O)(NCCSc1ccccn1)c1ccc(Br)cc1,"inconclusive [rising, single point]",–
Nc1nc2ccc(S(=O)(=O)c3ccc4nc(N)sc4c3)cc2s1,active: 14.1 µM,–
COc1ccc(OC)c(Nc2nc(=O)c3cccnc3s2)c1,active: 8.91 µM,–
O=C(Cc1ccccc1)N/N=C/c1cc(Br)cs1,–,"inactive: -0.879% [at 11.5 µM, 0% is enzyme alone, no compound]"
O=c1oc2ccccc2c(NCc2ccc(Cl)cc2)c1[N+](=O)[O-],"inconclusive [rising, single point]",–
N#C/C(=C\c1cccs1)C(=O)c1ccccc1Cl,"inconclusive [rising, partial curve]",–
COc1ccccc1NC(=O)C12CCC(C)(C(=O)C1)C2(C)C (stereo unspecified),"inconclusive [rising, single point]",–
COC(=O)c1c(C)n(-c2ccccc2)c2ccc(O)cc12,"inconclusive [rising, single point]",–
C/C=C/C=C\C(=O)Nc1cccc(C2=NOC3(C2)C[C@@H](C(N)=O)N(C(=O)/C(C)=C/C)C3)c1 (stereo partly specified),"inconclusive [rising, single point]",–
Cc1nc(SCC(=O)Nc2ccc3c(c2)OCO3)c(C#N)c2c1CCCC2,"inconclusive [rising, single point]",–
COc1ccc(NC(=O)CCCn2c(=O)oc3ccccc32)cc1Cl,inactive,–
Cn1c2ccccc2c2cc(C(=O)NNC(=O)CCl)sc21,inactive,–
N#Cc1c(N)nc(SCc2ccccn2)c(C#N)c1-c1cccs1,"inconclusive [rising, single point]",–
NC(=S)n1[nH]c(-c2ccc([N+](=O)[O-])cc2)c(N=Nc2ccccc2[N+](=O)[O-])c1=O,"inconclusive [rising, single point]",–
CCOc1ccc(S(=O)(=O)n2ccc(C)n2)c2ccccc12,"inconclusive [rising, single point]",–
NC(=O)Nc1ccc(C(=O)OCC(=O)Nc2ccc([N+](=O)[O-])cc2C(F)(F)F)cc1,inactive,–
Cc1ccc(Nc2nc3ccccc3c(=O)s2)cc1C,inactive,–

SMILES,Potency,activation
C=CCN1C(=O)/C(=N/n2cnnc2)c2ccccc21,"inconclusive [rising, partial curve]",–
CCOC(=O)c1ccc(NS(=O)(=O)c2ccc(Cl)nc2)cc1,inactive,–
Cc1ncsc1C(=O)O,"inconclusive [rising, single point]",–
CC1(C)Cc2nc3sc4c(SCC(=O)NCc5ccco5)ncnc4c3cc2CO1,"inconclusive [rising, partial curve]",–
O=C(/C=C/c1ccc(O)c(O)c1)OC1C(O)CC(OC(=O)/C=C/c2ccc(O)c(O)c2)(C(=O)O)CC1O (stereo unspecified),"inconclusive [rising, full curve]",–
Cc1ccc(S(=O)(=O)N/N=C/c2ccc(O)c(O)c2)cc1[N+](=O)[O-],"inconclusive [rising, single point]",–
O=C1CCN(S(=O)(=O)c2ccccc2)CCN1CCOCc1ccccc1,"inconclusive [rising, single point]",–
c1ccc(-c2nn3c(Cn4cnc5ccccc54)nnc3s2)cc1,active: 3.16 µM,–
CC(=O)c1c(C)[nH]c(C(=O)Nc2ccc(F)c(F)c2F)c1C,"inconclusive [rising, partial curve]",–
COc1ccc(-c2nc(C#N)c(NC(C)c3ccccc3)o2)cc1OC (stereo unspecified),"inconclusive [rising, full curve]",–
CN(C)C=NC(=O)c1ccc(N2CCN(c3ncc(C(F)(F)F)cc3Cl)CC2)cc1,inactive,–
Cc1cc(C)cc(NC(=O)CSc2nnc(-c3ccc(S(=O)(=O)N4CCCC4)cc3)o2)c1,"inconclusive [rising, partial curve]",–
COc1ccc(S(=O)(=O)Nc2cccc(Cl)c2)cc1OC,"inconclusive [rising, partial curve]",–
Fc1ccc(N=C2NN=C(c3cc(F)ccc3F)CS2)cc1,inactive,–
Cc1ccc(-c2noc(-c3cc4ccccc4oc3=O)n2)cc1,inactive,–
CC1Cc2ccccc2N1C(=O)c1ccc2c(c1)nnn2C (stereo unspecified),"inconclusive [rising, single point]",–
COC(=O)CSc1ncnc2c1cnn2Cc1ccccc1,"inconclusive [rising, partial curve]",–
COCCCn1c(Cc2csc(Nc3ccccc3)n2)nnc1SCC(N)=O,"inconclusive [rising, single point]",–
Cc1cccnc1NC(=S)NCc1ccco1,inactive,–
Cc1sc2nc(CN(Cc3cccs3)C(=O)C3CC3)[nH]c(=O)c2c1C,"inconclusive [rising, single point]",–
Cc1ccc(NS(=O)(=O)c2cc(NC(=O)c3ccc4c(c3)NC(=O)CS4)ccc2C)c(C)c1,inactive,–
CCN(CC)c1ccc(/C=N/Nc2nc3ccccc3[nH]2)cc1,inactive,–
Cn1c(SCc2cccnc2)nc2c(c1=O)SCC2,active: 28.2 µM,–
